Patent publication US20210347852A1 (Regeneron, published 2021)

How the values were obtained:
Human VEGF165 (REGN110) [1] = biological target: T1, Human VEGF165 (REGN110) (human, UniProt P15692-4 27-191); assay: cell-based or functional assay
T1 sequence (looked up): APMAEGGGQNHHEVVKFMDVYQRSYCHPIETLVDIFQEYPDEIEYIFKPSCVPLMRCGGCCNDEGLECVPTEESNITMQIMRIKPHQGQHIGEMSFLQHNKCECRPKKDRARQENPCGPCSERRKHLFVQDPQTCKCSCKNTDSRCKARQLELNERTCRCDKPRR

[2] = biological target: T2, Human VEGF121 (R&D SYSTEMS Cat #4644-VS) (human, UniProt P15692-9 27-147); assay: cell-based or functional assay
T2 sequence (looked up): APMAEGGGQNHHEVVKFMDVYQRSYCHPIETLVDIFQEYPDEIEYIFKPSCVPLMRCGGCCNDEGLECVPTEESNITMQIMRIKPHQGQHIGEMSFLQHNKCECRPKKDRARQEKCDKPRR

Human VEGF165 (REGN110) [3] = biological target: T1, Human VEGF165 (REGN110); assay: cell-based or functional assay; remark: listed apart in the source
[4] = biological target: T2, Human VEGF121 (R&D SYSTEMS Cat #4644-VS); assay: cell-based or functional assay; remark: listed apart in the source
Human VEGF165 (REGN110) [5] = biological target: T1, Human VEGF165 (REGN110); assay: SPR, 25C, trap captured by REGN18, hVEGF165 injected
Protocol: (§1) Equilibrium dissociation constants (KD values) for human VEGF₁₆₅ binding to various purified VEGF mini-trap constructs were determined using a real-time surface plasmon resonance biosensor using a Biacore 3000 instrument. All binding studies were performed in 10 mM HEPES, 150 mM NaCl, 3 mM EDTA, and 0.05% v/v Surfactant Tween-20; pH 7.4 (HBS-ET) running buffer at 25° C. The Biacore sensor surface was first derivatized by amine coupling with a monoclonal mouse anti-VEGFR1 antibody (REGN18) to capture VEGF mini-trap constructs. Binding studies were performed on the following human VEGF reagents: human VEGF₁₆₅. […] Dissociation of bound VEGF₁₆₅ reagent from VEGF mini-trap constructs was monitored for 60 minutes in HBS-ET running buffer. Kinetic association (ka) and dissociation (kd) rate constants were determined by fitting the real-time sensorgrams to a 1:1 binding model using Scrubber 2.0c curve fitting software. Binding dissociation equilibrium constants (KD) and dissociative half-lives (t1/2) were calculated from the kinetic rate constants as: […]

Human VEGF165 (REGN110) [6] = biological target: T1, Human VEGF165 (REGN110); assay: SPR (Biacore 3000), 25C, trap captured by REGN18, hVEGF165 injected
Protocol: as §1

IC50, Inhibition of 20 pM VEGF165, VEGFR1 assay (luciferase) (Human VEGF165 (REGN110) [1]): 3.1e-11 M
IC50, Inhibition of 20 pM VEGF121, VEGFR1 assay (luciferase) [2]: 2.15e-11 M
IC50, VEGFR1 40 pM VEGF165 (REGN110) (luciferase) (Human VEGF165 (REGN110) [3]): 1.49e-11 M
IC50, VEGFR1 40 pM R&D VEGF121 (luciferase) [4]: 1.12e-11 M
2 nM VEGF165 Bound (RU) (Human VEGF165 (REGN110) [5]): 12 RU
Kd (Human VEGF165 (REGN110) [5]): 1 pM
koff (Human VEGF165 (REGN110) [5]): ≤ 1e-05 s⁻¹
kon (Human VEGF165 (REGN110) [5]): 9.98e+06 M⁻¹ s⁻¹
t½ (Human VEGF165 (REGN110) [5]): ≥ 19.2 h
2.5 nM hVEGF165 Bound (RU) (Human VEGF165 (REGN110) [6]): 4.7 RU
Kd (Human VEGF165 (REGN110) [6]): 1.8 pM
koff (Human VEGF165 (REGN110) [6]): 1.7e-05 s⁻¹
kon (Human VEGF165 (REGN110) [6]): 9.7e+06 M⁻¹ s⁻¹
t½ (Human VEGF165 (REGN110) [6]): 11.3 h
B1: REGN3, VEGF Trap hIgG1 Fc (aflibercept) (Fc fusion)
chain: SDTGRPFVEMYSEIPEIIHMTEGRELVIPCRVTSPNITVTLKKFPLDTLIPDGKRIIWDSRKGFIISNATYKEIGLLTCEATVNGHLYKTNYLTHRQTNTIIDVVLSPSHGIELSVGEKLVLNCTARTELNVGIDFNWEYPSSKHQHKKLVNRDLKTQSGSEMKKFLSTLTIDGVTRSDQGLYTCAASSGLMTKKNSTFVRVHEK[human IgG1 Fc omitted]
notes: also called Eylea
